Source: the supplement of paper PMC8728848
Some of the results follow.

Tests used:
Assay in all cases: glycan array binding signal (z-score within array); higher = stronger binding
Conditions in all cases: glycan notation: IUPAC condensed, linker removed
[1] = target: Fuc(a1-2)Gal(b1-4)GlcNAc(b1-3)Gal(b1-4)GlcNAc(b1-3)Gal(b1-4)GlcNAc
Outline: (§1)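 Negative Z-scores can be read as non-binding. The Z-score is calculated within each array and then averaged across arrays of one protein sequence at different concentrations or buffers and across linkers. Arrays, 3228 in all, were curated from the Consortium for Functional Glycomics database and kept only where the protein sequence was available.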

[2] = target: Fuc(a1-2)Gal(b1-4)GlcNAc(b1-3)GalNAc
Outline: as §1

[3] = target: Fuc(a1-2)Gal(b1-4)GlcNAc(b1-3)[Fuc(a1-2)Gal(b1-4)GlcNAc(b1-6)]GalNAc
Outline: as §1

[4] = target: Fuc(a1-2)Gal(b1-4)GlcNAc(b1-3)[Fuc(a1-3)[Gal(b1-4)]GlcNAc(b1-6)]Gal(b1-4)Glc
Outline: as §1

[5] = target: Fuc(a1-2)Gal(b1-4)GlcNAc(b1-6)GalNAc
Outline: as §1

[6] = target: Fuc(a1-2)Gal(b1-4)GlcNAc6S
Outline: as §1

[7] = target: Fuc(a1-2)Gal(b1-4)[Fuc(a1-3)]GlcNAc
Outline: as §1

[8] = target: Fuc(a1-2)Gal(b1-4)[Fuc(a1-3)]GlcNAc(b1-2)Man(a1-3)[Fuc(a1-2)Gal(b1-4)[Fuc(a1-3)]GlcNAc(b1-2)Man(a1-6)]Man(b1-4)GlcNAc(b1-4)[Fuc(a1-6)]GlcNAc
Outline: as §1

[9] = target: Fuc(a1-2)Gal(b1-4)[Fuc(a1-3)]GlcNAc(b1-2)[Fuc(a1-2)Gal(b1-4)[Fuc(a1-3)]GlcNAc(b1-4)]Man(a1-3)[Fuc(a1-2)Gal(b1-4)[Fuc(a1-3)]GlcNAc(b1-2)Man(a1-6)]Man(b1-4)GlcNAc(b1-4)GlcNAc
Outline: as §1

[10] = target: Fuc(a1-2)Gal(b1-4)[Fuc(a1-3)]GlcNAc(b1-3)Gal(b1-4)[Fuc(a1-3)]GlcNAc
Outline: as §1

[11] = target: Fuc(a1-2)Gal(b1-4)[Fuc(a1-3)]GlcNAc(b1-3)Gal(b1-4)[Fuc(a1-3)]GlcNAc(b1-3)Gal(b1-4)[Fuc(a1-3)]GlcNAc
Outline: as §1

[12] = target: Fuc(a1-2)Gal(b1-4)[Fuc(a1-3)]GlcNAc(b1-3)GalNAc
Outline: as §1

[13] = target: Fuc(a1-2)Gal(b1-4)[Fuc(a1-3)]GlcNAc(b1-3)[Neu5Ac(a2-6)Gal(b1-4)GlcNAc(b1-6)]Gal(b1-4)Glc
Outline: as §1

[14] = target: Fuc(a1-2)Gal3S(b1-4)GlcNAc
Outline: as §1

[15] = target: Fuc(a1-2)Gal6S(b1-3)GlcNAc
Outline: as §1

[16] = target: Fuc(a1-2)Gal6S(b1-3)GlcNAc6S
Outline: as §1

Fuc(a1-2)Gal6S(b1-4)Glc = target: Fuc(a1-2)Gal6S(b1-4)Glc
Outline: as §1

[17] = target: Fuc(a1-2)Gal6S(b1-4)Glc6S
Outline: as §1

Fuc(a1-2)[Gal(a1-3)]Gal = target: Fuc(a1-2)[Gal(a1-3)]Gal
Outline: as §1

[18] = target: Fuc(a1-2)[Gal(a1-3)]Gal(b1-3)GalNAc
Outline: as §1

[19] = target: Fuc(a1-2)[Gal(a1-3)]Gal(b1-3)GalNAc(b1-3)Gal(a1-4)Gal(b1-4)Glc
Outline: as §1

[20] = target: Fuc(a1-2)[Gal(a1-3)]Gal(b1-3)GlcNAc
Outline: as §1

[21] = target: Fuc(a1-2)[Gal(a1-3)]Gal(b1-3)GlcNAc(b1-2)Man(a1-3)[Fuc(a1-2)[Gal(a1-3)]Gal(b1-3)GlcNAc(b1-2)Man(a1-6)]Man(b1-4)GlcNAc(b1-4)GlcNAc
Outline: as §1

[22] = target: Fuc(a1-2)[Gal(a1-3)]Gal(b1-3)GlcNAc(b1-2)Man(a1-3)[Fuc(a1-2)[Gal(a1-3)]Gal(b1-3)GlcNAc(b1-2)Man(a1-6)]Man(b1-4)GlcNAc(b1-4)[Fuc(a1-6)]GlcNAc
Outline: as §1

[23] = target: Fuc(a1-2)[Gal(a1-3)]Gal(b1-3)GlcNAc(b1-3)GalNAc
Outline: as §1

[24] = target: Fuc(a1-2)[Gal(a1-3)]Gal(b1-3)GlcNAc(b1-6)GalNAc
Outline: as §1

[25] = target: Fuc(a1-2)[Gal(a1-3)]Gal(b1-4)Glc
Outline: as §1

[26] = target: Fuc(a1-2)[Gal(a1-3)]Gal(b1-4)GlcNAc
Outline: as §1

[27] = target: Fuc(a1-2)[Gal(a1-3)]Gal(b1-4)GlcNAc(b1-2)Man
Outline: as §1

[28] = target: Fuc(a1-2)[Gal(a1-3)]Gal(b1-4)GlcNAc(b1-2)Man(a1-3)[Fuc(a1-2)[Gal(a1-3)]Gal(b1-4)GlcNAc(b1-2)Man(a1-6)]Man(b1-4)GlcNAc(b1-4)GlcNAc
Outline: as §1

B1: Nc3LysM (protein)
chain: QFTVPPDTTAEPNTIKTCTWWHVAGSGDSCTSIASTYGITSEQFARWDMETTDSPKNPSVATACKLTVGNSYCIENNFGQDDPPTPSISSSTLIGTATTSTTASTTTGNGISTPTPIQEGMETATTTTSSGNGITTPTPTQAGMETVGNCDRFHLVKSGDQCGTIASTYGITLANFYSWNPAVGTSCQSLWLDTYVCVRTIGFVPPKTTTTTTKKPTSTTSAGGVATPTPTQPGMETVSGCKKFHKGRGNVSTVASGDQCGTIATRYGISLANFYSWNPAVGSSCQTLWLDYYVCVGR
glycan array binding signal (z-score) [1]: -0.012 | glycan array binding signal (z-score) [2]: -0.257 | glycan array binding signal (z-score) [3]: -0.181 | glycan array binding signal (z-score) [4]: 0.036 | glycan array binding signal (z-score) [5]: 0.068 | glycan array binding signal (z-score) [6]: -0.064 | glycan array binding signal (z-score) [7]: -0.016 | glycan array binding signal (z-score) [8]: 0.018 | glycan array binding signal (z-score) [9]: -0.008 | glycan array binding signal (z-score) [10]: 0.045 | glycan array binding signal (z-score) [11]: 0.172 | glycan array binding signal (z-score) [12]: -0.251 | glycan array binding signal (z-score) [13]: -0.078 | glycan array binding signal (z-score) [14]: 0.052 | glycan array binding signal (z-score) [15]: -0.054 | glycan array binding signal (z-score) [16]: -0.032 | glycan array binding signal (z-score) (Fuc(a1-2)Gal6S(b1-4)Glc): -0.105 | glycan array binding signal (z-score) [17]: -0.049 | glycan array binding signal (z-score) (Fuc(a1-2)[Gal(a1-3)]Gal): -0.097 | glycan array binding signal (z-score) [18]: -0.136 | glycan array binding signal (z-score) [19]: -0.299 | glycan array binding signal (z-score) [20]: -0.128 | glycan array binding signal (z-score) [21]: -0.121 | glycan array binding signal (z-score) [22]: -0.142 | glycan array binding signal (z-score) [23]: -0.207 | glycan array binding signal (z-score) [24]: 0.094 | glycan array binding signal (z-score) [25]: -0.306 | glycan array binding signal (z-score) [26]: -0.133 | glycan array binding signal (z-score) [27]: -0.232 | glycan array binding signal (z-score) [28]: -0.096
